{"source": "PubChem BioAssay AID1671188", "about": "(National Center for Advancing Translational Sciences (NCATS), 2021)", "note": "Among all 100,000 compounds or so, about 250 (0.25%) were called active. The inconclusive results got no clear call from the source; some entries with a clear call stand among them for comparison. The call rests on the fitted dose curve; in most records, active means well fitted inhibition curve with a large enough effect; inconclusive means small, poorly fitted or top-dose-only effect; inactive means flat fitted curve, though single readings scatter. Potencies of inconclusive entries are left out as doubtful fits. On the % scale 0 is the no-effect control and ±100 the full control effect; potency means the concentration at half of the fitted maximal effect; tags describe the fitted curve by direction and shape."}
{"biological_target": "Alanine aminotransferase 2 (Homo sapiens) (UniProt Q8TD30)", "sequence (Q8TD30 whole entry, looked up)": "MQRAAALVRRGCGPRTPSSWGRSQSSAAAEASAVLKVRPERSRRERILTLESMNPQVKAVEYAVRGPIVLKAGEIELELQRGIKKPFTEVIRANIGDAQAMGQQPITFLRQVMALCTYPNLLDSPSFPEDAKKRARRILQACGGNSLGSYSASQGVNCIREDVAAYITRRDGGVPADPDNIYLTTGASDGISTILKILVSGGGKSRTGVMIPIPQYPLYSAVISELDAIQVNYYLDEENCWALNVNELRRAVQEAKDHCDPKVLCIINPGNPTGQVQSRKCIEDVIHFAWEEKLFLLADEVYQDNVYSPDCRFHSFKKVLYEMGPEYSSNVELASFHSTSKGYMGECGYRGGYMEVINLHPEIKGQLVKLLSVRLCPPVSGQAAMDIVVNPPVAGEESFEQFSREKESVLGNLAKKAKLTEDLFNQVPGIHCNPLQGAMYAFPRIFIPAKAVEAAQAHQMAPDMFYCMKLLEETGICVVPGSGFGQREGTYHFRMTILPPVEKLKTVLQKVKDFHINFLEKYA", "experiment": "Primary qHTS assay for inhibitors of Glutamate pyruvate transaminase 2 (GPT2); further: nearly all actives have a fitted effect of over 60% in size", "details": "Recombinant GPT2, coupled pyruvate oxidase/HRP Amplex Red fluorescence; activity change, negative = inhibition: at 57.7 µM (top of the series) unless noted; series mostly up to 57.7 µM", "method_in_brief": "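Recombinant GPT2 (10ng/uL) with 250uM a-KG and 2mM L-alanine, 30 min at room temperature, in HEPES pH 7.5 buffer. Pyruvate detected by pyruvate oxidase/HRP/Amplex Red fluorescence after 30 min in the dark; AOA (50uM) as positive control.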"}
{"smiles": "CCCN(C)C(=O)c1onc(-c2ccc(OC)cc2)c1[C@H](C)O", "Potency": "inactive"}
{"smiles": "O=C(NCc1ccc2c(c1)CCCO2)c1ccc(C2CCNC2)cc1", "note": "(stereo not drawn)", "Potency": "inconclusive [inhibitor, single point]"}
{"smiles": "Cc1ccccc1CC(=O)N1CCCN(c2cc(-c3ccc(Cl)cc3)[nH]n2)CC1", "Potency": "inconclusive [inhibitor, partial curve]"}
{"smiles": "COc1ccc(CNC(=O)C2(c3ccc(NC(C)=O)cc3)CCCCC2)cc1OC", "Potency": "inconclusive [inhibitor, single point]"}
{"smiles": "CN=C(NC#N)NCCSCc1nc[nH]c1C", "Potency": "inconclusive [inhibitor, single point]"}
{"smiles": "Cc1noc(C)c1[S+](=O)([O-])N1CCC2OCCN(Cc3ccccc3)C(=O)C2C1", "note": "(stereo not drawn)", "Potency": "inconclusive [inhibitor, single point]"}
{"smiles": "O=C([C@@H]1C[C@H](c2ccc(F)cc2)N(Cc2ccccc2Cl)C1)N1CCOCC1", "Potency": "inactive"}
{"smiles": "Cc1ccccc1S(=O)(=O)N1CCCC2(C1)Nc1cccnc1NC2=NC1CCCC1", "note": "(stereo not drawn)", "Potency": "inconclusive [inhibitor, full curve, poor fit]"}
{"smiles": "Cc1nnc2n1CCC(N(C)S(=O)(=O)c1ccccc1F)CC2", "note": "(stereo not drawn)", "Potency": "inconclusive [inhibitor, single point]"}
{"smiles": "CCOc1ccc(CC(=O)N2CCC[C@H]2c2nc(-c3ccc(OC)c(OC)c3)no2)cc1", "Potency": "inactive"}
{"smiles": "O=C(Nc1ccccc1)N1CC(Oc2ccc(-c3noc(-c4ccncc4)n3)cc2)C1", "Potency": "inactive"}
{"smiles": "C#CCN(C)C(=O)c1c(-c2ccc(F)cc2)noc1[C@H](C)O", "Potency": "inconclusive [inhibitor, single point]"}
{"smiles": "CO[C@H]1C=CC=C(C)C(=O)NC2=CC(=O)C(NCCN(C)C)=C(C[C@@H](C)C[C@H](OC)[C@@H](O)[C@@H](C)C=C(C)[C@@H]1OC(N)=O)C2=O", "Potency": "active: 30.6 µM"}
{"smiles": "COc1cccc(OCc2nc3c(n2Cc2ccccc2)C(=O)N(CCOc2ccccc2)CCN3)c1", "Potency": "inconclusive [inhibitor, single point]"}
{"smiles": "C=C(C)[C@H]1C[C@@H](O)C(=C)CC[C@@H](O)C(=C)[C@@H](O)C1", "Potency": "inconclusive [inhibitor, single point]"}
{"smiles": "CN1CCCCCCN(CC2CCCCC2)[C@H]2CCC[C@H]2C1=O", "Potency": "inactive"}
{"smiles": "CC1=C(C)C(=O)C(CCCCC#CCCCC#CCO)=C(C)C1=O", "Potency": "inconclusive [inhibitor, single point]"}
{"smiles": "COC[C@@H]1[C@H](NC(=O)c2cc(S(N)(=O)=O)ccc2OC)[C@@H]2CCO[C@H]12", "Potency": "inactive"}
{"smiles": "Cc1ccccc1OCc1nc(C2CN(C(=O)Cc3cccc(F)c3)C2)no1", "Potency": "inactive"}
{"smiles": "O=C(c1ccc2c(c1)OCO2)N1CC(Oc2ccc(F)c(F)c2)C1", "Potency": "inconclusive [inhibitor, single point]"}
{"smiles": "COc1cc(/C=C/CN2CC(=O)N(C(C)C)CC(OCc3noc(C)n3)C2)ccc1O", "note": "(stereo not drawn)", "Potency": "inconclusive [inhibitor, partial curve]"}
{"smiles": "CN(Cc1nccn1C)Cc1cnc(S(=O)(=O)CC2CC2)n1CC1CCCCC1", "Potency": "inconclusive [inhibitor, single point]"}
{"smiles": "O=C(NCCOc1ccccc1)c1ccc2c(c1)OCCN(CCC(F)(F)F)C2", "Potency": "inconclusive [inhibitor, partial curve, poor fit]"}
{"smiles": "O=C(NC1CCCC1)N1CCC(C(=O)N2CCC(c3ccccc3)CC2)CC1", "Potency": "inconclusive [inhibitor, full curve, poor fit]"}
{"smiles": "CCO[C@H]1C[C@@H](O)C12CCN(C(=O)CCCc1ccccc1)CC2", "Potency": "inconclusive [inhibitor, partial curve, poor fit]"}
{"smiles": "CN(CCc1ccccn1)c1ccc(-c2nc(COc3ccccc3)no2)cn1", "Potency": "inconclusive [inhibitor, full curve, poor fit]"}
{"smiles": "CCc1ccccc1S(=O)(=O)Nc1cccn2nc(C(C)C)nc12", "Potency": "inconclusive [inhibitor, single point]"}
{"smiles": "CN(C)CC(=O)N1CCC(c2ccc(NC(=O)c3ncc(C#N)[nH]3)c(C3=CCCCC3)c2)CC1", "Potency": "inconclusive [inhibitor, full curve]"}
{"smiles": "CN1CC(=O)N(c2ccccc2F)Cc2c(NC3CCCC3)ncnc21", "Potency": "inconclusive [inhibitor, single point]"}
{"smiles": "CCN1CCN(C(=O)C2Cn3cccc3C(=O)N2)CC1", "note": "(stereo not drawn)", "Potency": "inconclusive [inhibitor, single point]"}
{"smiles": "O=C1[C@H]2CN(Cc3cc(Cl)ccc3F)C[C@H]2C(=O)N1CCN1CCc2ccccc2C1", "Potency": "inactive"}
{"smiles": "CS(=O)(=O)N1CC2(CCN(C3CCCCC3)C2)Cc2ccccc21", "note": "(stereo not drawn)", "Potency": "inactive"}
{"smiles": "O=C(c1cn2cc(-c3ccc(F)cc3)sc2n1)N1CCOCC1", "Potency": "inactive"}
{"smiles": "Cc1ccc(-c2ncc(C(=O)NCCN(C)C3CCCCC3)c(-c3ccncc3)n2)cc1", "Potency": "inactive"}
{"smiles": "O=C(NCc1ccccn1)C1c2ccccc2C(=O)N(c2ccccc2)C12CCCCC2", "note": "(stereo not drawn)", "Potency": "inactive"}
{"smiles": "Cc1cn2nc(C(=O)NCC(C)C)cc2c(N2CCCC2)n1", "Potency": "inconclusive [inhibitor, single point]"}
{"smiles": "CC(C)c1cc(C2CCCN2CCC(=O)Nc2ccc(C(N)=O)cc2)no1", "note": "(stereo not drawn)", "Potency": "inconclusive [inhibitor, full curve, poor fit]"}
{"smiles": "O=C(CC1CCCC1)NC1CCN(C(=O)N2CC3CC(C2)[C@H]2CCCC(=O)N2C3)CC1", "note": "(stereo partly drawn)", "Potency": "inactive"}
{"smiles": "Cc1nnc([C@@H]2CC(F)(F)CN2)o1", "Potency": "inactive"}
{"smiles": "Cc1ccc(CN2CCc3oc(C)c(C(=O)N4CCC(C(N)=O)CC4)c3C2)cc1", "Potency": "inconclusive [inhibitor, single point]"}
{"smiles": "COCC1CCCN(C(=O)c2cc(Cn3c(C)nc4ccccc43)[nH]n2)C1", "note": "(stereo not drawn)", "Potency": "inconclusive [inhibitor, single point]"}
{"smiles": "O=C(NCc1ccccn1)C1CCCCN1Cc1ccc(-c2ccsc2)cc1", "note": "(stereo not drawn)", "Potency": "inconclusive [inhibitor, single point]"}
{"smiles": "NCCCN1C(=O)CC[C@H]2CN(C(=O)CN3CCNC(=O)C3)CC[C@H]21", "Potency": "inactive"}
{"smiles": "CCCc1ccc(-c2nc(C3CCOC3)no2)cc1", "note": "(stereo not drawn)", "Potency": "inactive"}
{"smiles": "C=CCn1cc2c3c(cccc31)[C@H](CC(C)C)N[C@H](C(=O)NCCCN1CCCC1=O)C2", "Potency": "inconclusive [inhibitor, single point]"}
{"smiles": "COc1ccc(S(=O)(=O)N2CCc3c(C(=O)NC4CCCC4)cccc32)cc1", "Potency": "inconclusive [inhibitor, single point]"}
{"smiles": "O=C(NC1CCc2ccccc21)c1cc(COc2ccc3c(c2)OCO3)[nH]n1", "note": "(stereo not drawn)", "Potency": "inconclusive [inhibitor, single point]"}
{"smiles": "CCOCC(=O)N1CCCN(S(C)(=O)=O)c2ccccc21", "Potency": "inactive"}
{"smiles": "COc1ccc([C@H]2Cc3cccc(O)c3C(=O)O2)cc1", "Potency": "inconclusive [inhibitor, single point]"}
{"smiles": "COc1cc(CN2CCC(C)(NC(C)=O)CC2)cc(NCc2ccccc2)c1", "Potency": "inactive"}
{"smiles": "COc1ccccc1Nc1ccnc(N2CCN(C(=O)NC(C)C)CC2)n1", "Potency": "inactive"}
{"smiles": "CC(C)CCN1CC2(CCCN(S(=O)(=O)N3CCOCC3)C2)CCC1=O", "note": "(stereo not drawn)", "activity change, negative = inhibition": "inactive: 0.353% [at 11.5 µM]"}
{"smiles": "O=C(NCCCc1ccccc1)C1CN(c2ccc(Cl)cc2)C(=O)N1", "note": "(stereo not drawn)", "Potency": "inactive"}
{"smiles": "O=C([C@@H]1C[C@H](Oc2ccccc2)CN1C(=O)C1CC1)N1CCCC1", "Potency": "inconclusive [inhibitor, single point]"}
{"smiles": "O=C(NCC1(COc2cnccn2)C[C@@H](O)[C@@H](O)C1)c1cccnc1", "note": "(stereo partly drawn)", "Potency": "inactive"}
{"smiles": "O=C(NCc1ccncc1)C1CN(Cc2ccccc2Br)CC12CCOCC2", "note": "(stereo not drawn)", "Potency": "inactive"}
{"smiles": "O=C(NCC(=O)N1CCOCC1)c1cccc(-c2ccc(C(F)(F)F)cc2)c1", "Potency": "inactive"}
{"smiles": "Oc1ccc(Nc2nc(-c3ccc(Cl)cc3)cs2)cc1", "Potency": "inconclusive [inhibitor, single point]"}
{"smiles": "COc1cccc(NC(=O)Cn2c(C)ccc(NS(=O)(=O)c3ccccc3)c2=O)c1", "Potency": "inconclusive [inhibitor, partial curve, poor fit]"}
{"smiles": "O=C(COc1ccc(F)cc1)N1CCCC(c2noc(COc3ccccc3F)n2)C1", "note": "(stereo not drawn)", "Potency": "inactive"}
{"smiles": "O=C(CC1C(=O)Nc2ccccc21)OC[C@H]1O[C@@H](OCCc2ccc(O)cc2)[C@H](O)[C@@H](O)[C@@H]1O", "note": "(stereo partly drawn)", "Potency": "inconclusive [inhibitor, partial curve, poor fit]"}
{"smiles": "N#Cc1ccc2[nH]c(O)c(-c3ccc(CN4CCOCC4)cn3)c2c1", "Potency": "inconclusive [inhibitor, single point]"}
{"smiles": "CC(C)c1ccc(S(=O)(=O)N2CC(c3nc(-c4ccncc4)no3)C2)cc1", "Potency": "inconclusive [inhibitor, partial curve, poor fit]"}
{"smiles": "Cn1c(CCC(=O)NC2CCOCC2)nc2cc(S(=O)(=O)N3CCCC3)ccc21", "Potency": "inconclusive [inhibitor, partial curve, poor fit]"}
{"smiles": "O=C(c1cccc2c1NCCC2)N1CCn2nc(C(O)C3CC3)cc2C1", "note": "(stereo not drawn)", "Potency": "inconclusive [inhibitor, single point]"}
{"smiles": "Cc1ccsc1-c1[nH]nc2ncc(-c3cccnc3)nc12", "Potency": "inconclusive [inhibitor, partial curve, poor fit]"}
{"smiles": "Cc1cnc(CC2CCN(C(=O)NCc3ccccc3)C2)n1CC1CC1", "note": "(stereo not drawn)", "Potency": "inactive"}
{"smiles": "COc1ccc2ccc(OCc3nc(C(=O)N4CCCC(C)(CO)C4)co3)cc2c1", "note": "(stereo not drawn)", "Potency": "inconclusive [inhibitor, partial curve, poor fit]"}
